Experimental data from PubChem BioAssay AID652104 (National Center for Advancing Translational Sciences (NCATS), 2013).
About 7,200 (1.8%) of roughly 410,000 compounds were called active. The inconclusive results got no clear call from the source; some entries with a clear call stand among them for comparison. The call rests on the fitted dose curve; in most records, active means well fitted activation curve with a large enough effect; inconclusive means small, poorly fitted or top-dose-only effect, or another doubt; inactive means no such curve, though single readings can be large or run the other way. Potencies beside an inconclusive call are fits to weak or partial responses and may not hold up.

Test: qHTS of TDP-43 Inhibitors; further: nearly all actives have a fitted effect of over 50% in size; on growth rescue (activation): % of control where 0% means no effect
Conditions: TDP-43 expressing yeast growth rescue, BacTiter-Glo, 24 h; growth rescue (activation): at 46.1 µM (top of the series) unless noted
Method in brief: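 In this qHTS, compounds that restore growth of yeast expressing TDP-43 appear as activators. Cells (OD600=0.02, galactose medium, raffinose-pregrown) are incubated with compound 24 hr at 30 deg C and growth is quantified by BacTiter-Glo.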
Potency means the concentration at half of the fitted maximal effect; tags describe the fitted curve by direction and shape.

Potency, active:
CS(=O)(=O)c1ccccc1COC(=O)Nc1ccc(Cl)cc1 12.6 µM
COc1ccc(/C=C/C(=O)c2ccc[nH]2)c(OC)c1OC 14.1 µM
Cc1ccccc1Cn1cnc2c([N+](=O)[O-])c(C)c(C)cc21 12.6 µM
COc1ccc(NC(=O)c2c(NC(=O)COc3ccc(Cl)cc3)sc3c2CCCCC3)cc1 8.91 µM
S=C(NC1CC1)SCc1ccco1 28.2 µM
Cc1ccc2nc3ccc(N4CCCCCCC4)nn3c(=O)c2c1 22.4 µM
O=C(COc1ccc2c(c1)CCC2)NCc1cccc(Cl)c1 20 µM
CCCCn1c(=O)c(-c2ccccc2)c(O)c2ccccc21 17.8 µM

Potency, inconclusive:
O=c1c2ccccc2ncn1CCCCOc1ccccc1F 12.6 µM [activator, partial curve]
O=S(=O)(Cc1ccccc1)N1CCC(c2nc(-c3cccs3)no2)CC1 15.8 µM [activator, single point]
O=C(NCc1cccc(Br)c1)C1CC(c2cc(C(F)(F)F)cc(C(F)(F)F)c2)=NO1 (stereo not given) 2.82 µM [activator, partial curve]
O=C1[C@H]2CC3C=CC2(O3)[C@@H]2OCCCN12 (stereo not given in full) 0.355 µM [activator, full curve, poor fit]
NC(=O)c1c(NC(=O)c2ccncc2)sc2c1CCCCCC2 7.94 µM [activator, single point]
CN(C(=O)c1ccc(NC(=O)Cc2ccc(NC(=O)C3CCN(C(=O)C4CCCCC4)CC3)cc2)cc1)C1CC1 35.5 µM [activator, single point]
Cc1occc1C(=O)O/N=C(\N)c1ccc(Cl)cc1 3.55 µM [activator, single point]
Cc1cc(-c2nnc(SCC(=O)Nc3ccccc3Cl)n2C)no1 25.1 µM [activator, partial curve, poor fit]
Nc1c(-c2ccc(Cl)cc2)nnn1-c1ccccc1 5.01 µM [activator, partial curve]
Cc1cccc(N(Cc2ccccc2)C(=O)CSC(C)C(=O)Nc2cc(C)on2)c1 (stereo not given) 10 µM [activator, partial curve]
CCCn1c(COc2ccccc2)nc2ccccc21 10 µM [activator, partial curve]
CCOC(=O)c1c(NC(=O)Nc2ccccc2)sc(C)c1C 1.41 µM [activator, partial curve]
[2H]C(CCOS(N)(=O)=O)c1ccc(C(C)(C)C)cc1 (stereo not given) 11.2 µM [activator, partial curve]
COc1ccccc1NC(=O)N1CC=C(c2c[nH]c3ccccc23)CC1 14.1 µM [activator, single point]
OC1c2cc(Br)ccc2N=C2CCCCCN21 (stereo not given) 15.8 µM [activator, single point]
COc1cc(C(=O)N/N=C/c2cccc(Oc3ccccc3)c2)ccc1O 12.6 µM [activator, single point]
COc1ccc(C2=Nc3ccccc3N(C(=O)c3ccc4c(c3)OCO4)C2C(=O)NCc2ccccc2)cc1 (stereo not given) 17.8 µM [activator, partial curve]
CC(=O)c1ccc(N2CCN(C(=O)CS(=O)(=O)c3cccc4nsnc34)CC2)cc1 1.12 µM [activator, full curve]
Cn1nnc(NC(=O)c2ccco2)n1 35.5 µM [activator, partial curve]
COc1cc2c(cc1NC(=O)CN1C(=O)NC3(CCc4ccccc43)C1=O)oc1ccccc12 (stereo not given) 35.5 µM [activator, single point]
COC(=O)[C@]12CCCCC=C1N(Cc1ccco1)C(=O)[C@H](CC(=O)NCC13CC4CC(CC(C4)C1)C3)C2 22.4 µM [activator, partial curve]
CCCCOc1cccc(C(=O)N(Cc2ccc(Cl)cc2)C2CCS(=O)(=O)C2)c1 (stereo not given) 35.5 µM [activator, single point]
O=C(Nc1ccc(N2CCOCC2)cc1N1CCOCC1)c1ccc(F)cc1 35.5 µM [activator, partial curve]
C=CCn1c(SCC(=O)Nc2cc(C)ccc2OC)nnc1-c1ccco1 11.2 µM [activator, partial curve, poor fit]
CC(NC(=O)Oc1cccc2ccccc12)c1ccccc1 (stereo not given) 10 µM [activator, partial curve]
Cc1cccc2cc(C#N)c(N3CCOCC3)nc12 6.31 µM [activator, partial curve]
CC1(C)Oc2ccc3ccc(=O)oc3c2/C(=C/NC2CCCCC2)C1=O 31.6 µM [activator, single point]
CC1Cc2ccccc2N1C(=S)Nc1ccc(S(N)(=O)=O)cc1 (stereo not given) 35.5 µM [activator, single point]
CCOc1cc(/C=N\NC(=O)CN2CCOCC2)ccc1OCc1ccc(F)cc1 31.6 µM [activator, single point]
S=C(Nc1ccccc1Cl)NC1CCCCCC1 15.8 µM [activator, single point]
COc1ccc(/C=C/c2nc3ccccc3n2Cc2ccccc2OC)cc1 15.8 µM [activator, single point]
COC(=O)CN1C(=O)S/C(=C/c2ccc(N3CCCCC3)o2)C1=O 17.8 µM [activator, single point]
CC1(C)CC(=O)C(C=NCc2ccc3c(c2)OCO3)=C(O)C1 5.62 µM [activator, single point]
CSCCC(NC(=O)c1ccccc1)C(=O)OCC(=O)Nc1ccc(C)c(Cl)c1 (stereo not given) 31.6 µM [activator, single point]
COc1ccc(C(=O)c2cn(Cc3ccccc3F)c3ccc(F)cc3c2=O)cc1 25.1 µM [activator, partial curve]
C=CCC1NS(=O)(=O)OC(CCc2ccccc2)C1O (stereo not given) 39.8 µM [activator, partial curve, poor fit]
COc1ccc(CNC(=S)Nc2ccc(OC)cc2)cc1 22.4 µM [activator, partial curve]
Oc1ccc(-n2nnnc2SCc2ccccc2Br)cc1 11.2 µM [activator, single point]
Cc1ccc(NC(=O)CN(C)C(=O)Cc2coc3cc(C)c(C)cc23)cc1 10 µM [activator, single point]
COc1ccc(-c2ccnc3nc(N4CCOCC4)nn23)cc1 20 µM [activator, single point]
CCOC(=O)c1ccc(NC(=O)c2nc(S(=O)(=O)Cc3ccccc3)ncc2Cl)cc1 0.501 µM [activator, full curve]
CCOC(=O)N1CCN(S(=O)(=O)c2cc(Cl)ccc2Cl)CC1 14.1 µM [activator, partial curve]
N/C(=N\OCc1ccccc1)c1nonc1N 12.6 µM [activator, partial curve]
Cc1ccc(OCC(=O)Nc2ccc3nc(SCC(=O)N4CCCC4)sc3c2)cc1C 28.2 µM [activator, single point]
Cc1cccc(NC(=S)N2CCC(c3nc4ccccc4o3)CC2)c1C 25.1 µM [activator, single point]
CCC1CN(C(=O)NCc2ccc(F)cc2)c2ccccc2O1 (stereo not given) 10 µM [activator, single point]
Cc1ccc(NC(=O)c2cnccn2)c(Br)c1 7.08 µM [activator, partial curve]

Potency, inactive:
COc1cccc(NC(=O)Cn2c(=O)n(CCCC(=O)NCc3ccc4c(c3)OCO4)c(=O)c3ccccc32)c1
CN(Cc1ccccc1)C(=O)COC(=O)c1cc(=O)[nH]c2ccccc12
Cc1ccccc1-c1noc(CSc2nnc(Cc3ccccc3)n2-c2ccc(F)cc2)n1
Cc1cc(=O)[nH]c2nnc(SCCC(C)C)n12
COC(=O)c1cc(S(=O)(=O)NCc2cc(OC)c(OC)c(OC)c2)cn1C
COc1ccc(-c2[nH]c(-c3ccc(OC)c(OC)c3)nc2SCC(=O)Nc2ccccc2)cc1
Cc1coc2c(C)c3oc(=O)c(CCC(=O)NCCCN4CCOCC4)c(C)c3cc12
CC(Oc1cc2oc(=O)c3c(c2cc1Cl)CCC3)C(=O)NCc1ccncc1 (stereo not given)
CNC(=S)N/N=C/c1cc(C)ccc1C
COCc1cc(C)nc(N2CCN(Cc3ccccc3)CC2)c1C#N
CC1=C(C(N)=O)C(c2cccc(C)c2)n2nc(-c3ccc(Cl)cc3)nc2N1 (stereo not given)
COc1ccc2oc(C(=O)OCC(=O)N3CCCCC3C)c(C)c2c1 (stereo not given)
Cc1c(C(=O)NCc2cccs2)sc(=O)n1Cc1ccc(S(C)(=O)=O)cc1
CCCNC(=O)c1cc(C2CCCCN2S(=O)(=O)c2cccc3cccnc23)on1 (stereo not given)

Growth rescue (activation), inactive:
O=C(CCl)N=c1sccn1Cc1ccc(Cl)cc1Cl 21.9% [at 9.22 µM]
